# Experimental data taken from the supplement of paper PMC8728848.
# The list shows a part of the results.
# B1: Alpha-agglutinin (Saccharomyces cerevisiae) (protein)
# chain: MFTFLKIILWLFSLALASAININDITFSNLEITPLTANKQPDQGWTATFDFSIADASSIREGDEFTLSMPHVYRIKLLNSSQTATISLADGTEAFKCYVSQQAAYLYENTTFTCTAQNDLSSYNTIDGSITFSLNFSDGGSSYEYELENAKFFKSGPMLVKLGNQMSDVVNFDPAAFTENVFHSGRSTGYGSFESYHLGMYCPNGYFLGGTEKIDYDSSNNNVDLDCSSVQVYSSNDFNDWWFPQSYNDTNADVTCFGSNLWITLDEKLYDGEMLWVNALQSLPANVNTIDHALEFQYTCLDTIANTTYATQFSTTREFIVYQGR
# Tests used:
# Assay in all cases: glycan array binding signal (z-score within array); higher = stronger binding
# Settings in all cases: glycan notation: IUPAC condensed, linker removed
# [1] = biological target: Neu5Ac(a2-8)Neu5Ac(a2-8)Neu5Ac(a2-8)Neu5Ac(a2-3)[GalNAc(b1-4)]Gal(b1-4)Glc
# Summary of the method: (§1)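 Columns mapping to the same glycan were averaged after glycan names were converted to IUPAC-condensed notation. The data come from 3228 arrays in the Consortium for Functional Glycomics database, limited to those with an available protein sequence. Binding is reported as a within-array Z-score averaged across arrays of one protein sequence and across linkers.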
# [2] = biological target: Neu5Ac9Ac(a2-6)Gal(b1-4)GlcNAc
# Summary of the method: as §1
# [3] = biological target: Neu5Gc(a2-3)Gal(b1-3)GlcNAc
# Summary of the method: as §1
# [4] = biological target: Neu5Gc(a2-3)Gal(b1-3)[Fuc(a1-4)]GlcNAc
# Summary of the method: as §1
# [5] = biological target: Neu5Gc(a2-3)Gal(b1-4)Glc
# Summary of the method: as §1
# [6] = biological target: Neu5Gc(a2-3)Gal(b1-4)GlcNAc
# Summary of the method: as §1
# [7] = biological target: Neu5Gc(a2-3)Gal(b1-4)[Fuc(a1-4)]GlcNAc
# Summary of the method: as §1
# [8] = biological target: Neu5Gc(a2-6)Gal(b1-4)GlcNAc
# Summary of the method: as §1
# [9] = biological target: Neu5Gc(a2-6)GalNAc
# Summary of the method: as §1
binder,measurement,setting,value
B1,glycan array binding signal (z-score),[1],-0.128
same,glycan array binding signal (z-score),[2],-0.24
same,glycan array binding signal (z-score),[3],-0.06
same,glycan array binding signal (z-score),[4],-0.265
same,glycan array binding signal (z-score),[5],-0.268
same,glycan array binding signal (z-score),[6],-0.256
same,glycan array binding signal (z-score),[7],-0.266
same,glycan array binding signal (z-score),[8],-0.269
same,glycan array binding signal (z-score),[9],0.016
